The supplement of paper PMC8728848
This is one part of the list.

What was measured:
Assay in all cases: glycan array binding signal (z-score within array); higher = stronger binding
Conditions in all cases: glycan notation: IUPAC condensed, linker removed
[1] = biological target: Fuc(a1-2)[Gal(a1-3)]Gal(b1-4)GlcNAc(b1-2)Man(a1-3)[Fuc(a1-2)[Gal(a1-3)]Gal(b1-4)GlcNAc(b1-2)Man(a1-6)]Man(b1-4)GlcNAc(b1-4)GlcNAc
How it was run: (§1)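 Glycan array binding is given as a within-array Z-score, which can be read as non-binding when negative. The arrays, 3228 of them, came from the Consortium for Functional Glycomics database and were retained only where the protein sequence was available. Z-scores were averaged across arrays of the same protein sequence at different concentrations or buffers and across linkers.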

[2] = biological target: Fuc(a1-2)[Gal(a1-3)]Gal(b1-4)GlcNAc(b1-2)Man(a1-3)[Fuc(a1-2)[Gal(a1-3)]Gal(b1-4)GlcNAc(b1-2)Man(a1-6)]Man(b1-4)GlcNAc(b1-4)[Fuc(a1-6)]GlcNAc
How it was run: as §1

[3] = biological target: Fuc(a1-2)[Gal(a1-3)]Gal(b1-4)GlcNAc(b1-3)GalNAc
How it was run: as §1

[4] = biological target: Fuc(a1-2)[Gal(a1-3)]Gal(b1-4)GlcNAc(b1-3)[Fuc(a1-2)[Gal(a1-3)]Gal(b1-4)GlcNAc(b1-6)]GalNAc
How it was run: as §1

[5] = biological target: Fuc(a1-2)[Gal(a1-3)]Gal(b1-4)GlcNAc(b1-6)GalNAc
How it was run: as §1

[6] = biological target: Fuc(a1-2)[Gal(a1-3)]Gal(b1-4)[Fuc(a1-3)]Glc
How it was run: as §1

[7] = biological target: Fuc(a1-2)[Gal(a1-3)]Gal(b1-4)[Fuc(a1-3)]GlcNAc
How it was run: as §1

[8] = biological target: Fuc(a1-2)[Gal(a1-3)]Gal(b1-4)[Fuc(a1-3)]GlcNAc(b1-3)GalNAc
How it was run: as §1

[9] = biological target: Fuc(a1-2)[Gal(a1-4)]Gal(b1-4)GlcNAc
How it was run: as §1

[10] = biological target: Fuc(a1-2)[GalNAc(a1-3)]Gal
How it was run: as §1

[11] = biological target: Fuc(a1-2)[GalNAc(a1-3)]Gal(b1-3)GalNAc(a1-3)[Fuc(a1-2)]Gal(b1-4)GlcNAc
How it was run: as §1

[12] = biological target: Fuc(a1-2)[GalNAc(a1-3)]Gal(b1-3)GalNAc(b1-3)Gal(a1-4)Gal(b1-4)Glc
How it was run: as §1

[13] = biological target: Fuc(a1-2)[GalNAc(a1-3)]Gal(b1-3)GlcNAc
How it was run: as §1

[14] = biological target: Fuc(a1-2)[GalNAc(a1-3)]Gal(b1-3)GlcNAc(b1-2)Man(a1-3)[Fuc(a1-2)[GalNAc(a1-3)]Gal(b1-3)GlcNAc(b1-2)Man(a1-6)]Man(b1-4)GlcNAc(b1-4)GlcNAc
How it was run: as §1

[15] = biological target: Fuc(a1-2)[GalNAc(a1-3)]Gal(b1-3)GlcNAc(b1-2)Man(a1-3)[Fuc(a1-2)[GalNAc(a1-3)]Gal(b1-3)GlcNAc(b1-2)Man(a1-6)]Man(b1-4)GlcNAc(b1-4)[Fuc(a1-6)]GlcNAc
How it was run: as §1

[16] = biological target: Fuc(a1-2)[GalNAc(a1-3)]Gal(b1-3)GlcNAc(b1-3)GalNAc
How it was run: as §1

[17] = biological target: Fuc(a1-2)[GalNAc(a1-3)]Gal(b1-3)GlcNAc(b1-6)GalNAc
How it was run: as §1

[18] = biological target: Fuc(a1-2)[GalNAc(a1-3)]Gal(b1-4)Glc
How it was run: as §1

[19] = biological target: Fuc(a1-2)[GalNAc(a1-3)]Gal(b1-4)GlcNAc
How it was run: as §1

[20] = biological target: Fuc(a1-2)[GalNAc(a1-3)]Gal(b1-4)GlcNAc(b1-2)Man
How it was run: as §1

[21] = biological target: Fuc(a1-2)[GalNAc(a1-3)]Gal(b1-4)GlcNAc(b1-2)Man(a1-3)[Fuc(a1-2)[GalNAc(a1-3)]Gal(b1-4)GlcNAc(b1-2)Man(a1-6)]Man(b1-4)GlcNAc(b1-4)GlcNAc
How it was run: as §1

[22] = biological target: Fuc(a1-2)[GalNAc(a1-3)]Gal(b1-4)GlcNAc(b1-2)Man(a1-3)[Fuc(a1-2)[GalNAc(a1-3)]Gal(b1-4)GlcNAc(b1-2)Man(a1-6)]Man(b1-4)GlcNAc(b1-4)[Fuc(a1-6)]GlcNAc
How it was run: as §1

[23] = biological target: Fuc(a1-2)[GalNAc(a1-3)]Gal(b1-4)GlcNAc(b1-3)Gal(b1-4)GlcNAc
How it was run: as §1

[24] = biological target: Fuc(a1-2)[GalNAc(a1-3)]Gal(b1-4)GlcNAc(b1-3)Gal(b1-4)GlcNAc(b1-3)Gal(b1-4)GlcNAc
How it was run: as §1

[25] = biological target: Fuc(a1-2)[GalNAc(a1-3)]Gal(b1-4)GlcNAc(b1-3)GalNAc
How it was run: as §1

[26] = biological target: Fuc(a1-2)[GalNAc(a1-3)]Gal(b1-4)GlcNAc(b1-3)[Fuc(a1-2)[GalNAc(a1-3)]Gal(b1-4)GlcNAc(b1-6)]GalNAc
How it was run: as §1

[27] = biological target: Fuc(a1-2)[GalNAc(a1-3)]Gal(b1-4)GlcNAc(b1-6)GalNAc
How it was run: as §1

[28] = biological target: Fuc(a1-2)[GalNAc(a1-3)]Gal(b1-4)[Fuc(a1-3)]GlcNAc
How it was run: as §1

[29] = biological target: Fuc(a1-2)[GalNAc(a1-3)]Gal(b1-4)[Fuc(a1-3)]GlcNAc(b1-3)GalNAc
How it was run: as §1

[30] = biological target: Fuc(a1-2)[GalNAc(a1-4)]Gal(b1-4)GlcNAc
How it was run: as §1

[31] = biological target: Fuc(a1-2)[GalNAc(b1-3)]Gal
How it was run: as §1

[32] = biological target: Fuc(a1-3)GlcNAc
How it was run: as §1

[33] = biological target: Fuc(a1-3)[Gal(b1-4)]Glc6S
How it was run: as §1

[34] = biological target: Fuc(a1-3)[Gal(b1-4)]GlcNAc
How it was run: as §1

[35] = biological target: Fuc(a1-3)[Gal(b1-4)]GlcNAc(b1-2)Man
How it was run: as §1

[36] = biological target: Fuc(a1-3)[Gal(b1-4)]GlcNAc(b1-2)Man(a1-3)[Fuc(a1-3)[Gal(b1-4)]GlcNAc(b1-2)Man(a1-6)]Man(b1-4)GlcNAc(b1-4)GlcNAc
How it was run: as §1

[37] = biological target: Fuc(a1-3)[Gal(b1-4)]GlcNAc(b1-2)Man(a1-3)[Fuc(a1-3)[Gal(b1-4)]GlcNAc(b1-2)Man(a1-6)]Man(b1-4)GlcNAc(b1-4)[Fuc(a1-6)]GlcNAc
How it was run: as §1

B1: PX9961A-pdi-456-24-456 (Parabacteroides distasonis) (protein)
chain: KTSSTQLPTIDAISSVADLTNAVNGVYEQQATEVGSYGAEFTLLADLRSGDFQSISTVNHAGPMYRYQTGKNDEMVYSFYKLFYNSLARLNNVLAAAENLEGADVDILKGELYAMRALYHFDLARVFAKLPSTTDMNDLGIVLSTEVYPTDYIGTRATLQQTYDQILKDIETALPLLSKDKQTGHINYWGALAIRARAYLYLEKNKEALADCKEIIASSPYKLYTRDEYIGAWDKEGTNEAIFEILVTPNYNAQRNSIGYFTHASGYGECAATESFLEELAKHPGDIRTELFAKETDNGYDGTYPQKYKGRDGQIYVNNPKVVRLSEVYLIAAEAALKAGDTSAAAGYMNTLRKNRIENYTDVASITLDDILLERRLELFTEGHTAWDAWRNGKSVNNKFVGEVKPGDYRTIMAIPIGEITVSRGQLIQNPGY
[1]
  glycan array binding signal (z-score): -0.024
[2]
  glycan array binding signal (z-score): -0.332
[3]
  glycan array binding signal (z-score): 0.176
[4]
  glycan array binding signal (z-score): 0.596
[5]
  glycan array binding signal (z-score): -0.28
[6]
  glycan array binding signal (z-score): -0.472
[7]
  glycan array binding signal (z-score): -0.227
[8]
  glycan array binding signal (z-score): -0.012
[9]
  glycan array binding signal (z-score): -0.286
[10]
  glycan array binding signal (z-score): -0.073
[11]
  glycan array binding signal (z-score): -0.263
[12]
  glycan array binding signal (z-score): -0.246
[13]
  glycan array binding signal (z-score): -0.378
[14]
  glycan array binding signal (z-score): -0.57
[15]
  glycan array binding signal (z-score): -0.098
[16]
  glycan array binding signal (z-score): -0.485
[17]
  glycan array binding signal (z-score): -0.088
[18]
  glycan array binding signal (z-score): 0.428
[19]
  glycan array binding signal (z-score): -0.142
[20]
  glycan array binding signal (z-score): -0.43
[21]
  glycan array binding signal (z-score): -0.443
[22]
  glycan array binding signal (z-score): -0.089
[23]
  glycan array binding signal (z-score): 0.539
[24]
  glycan array binding signal (z-score): -0.097
[25]
  glycan array binding signal (z-score): -0.524
[26]
  glycan array binding signal (z-score): 0.144
[27]
  glycan array binding signal (z-score): -0.015
[28]
  glycan array binding signal (z-score): -0.279
[29]
  glycan array binding signal (z-score): 0.753
[30]
  glycan array binding signal (z-score): 0.192
[31]
  glycan array binding signal (z-score): -0.12
[32]
  glycan array binding signal (z-score): -0.424
[33]
  glycan array binding signal (z-score): 0.11
[34]
  glycan array binding signal (z-score): -0.238
[35]
  glycan array binding signal (z-score): -0.45
[36]
  glycan array binding signal (z-score): -0.323
[37]
  glycan array binding signal (z-score): 0.26
